Assay results from US20260209325A1, “SELECTIVE AND POTENT INHIBITORY ANTIBODIES OF MYOSTATIN ACTIVATION” (SCHOLAR ROCK, INC., priority 2022, published 2026).
Where a chain is given by its changes, count along the chain named. “Also recorded” adds a separate entry of the source.

Tests used:
total myostatin [1] = assay: circulating total myostatin in serum by ELISA after acidification, dexamethasone study; assay type: in vivo, mouse; conditions: for total circulating myostatin in serum: dexamethasone study, terminal serum, FIG. 8; for total circulating (serum) myostatin levels: dexamethasone-treated or liraglutide-treated animals, FIGS. 15A-B; for Myostatin (circulating total myostatin levels): serum of terminal bleed, dexamethasone-treated mice; for accumulation of myostatin in serum of dosed subjects, compared with apitegromab: statement in description
Procedure: An assay of the target engagement of the antibodies, i.e., a pharmacodynamic assay, can be performed by measuring the binding of the antibodies to myostatin. In some embodiments, myostatin is detected as described by Lakshman et al. (Mol. Cell. Endocrinol. (2009) 302(1): 26-32), the contents of which are incorporated herein in their entirety. In some embodiments, samples are treated with acid to convert all myostatin forms to the mature growth factor; a biotinylated capture antibody that is specific for mature myostatin is added to a streptavidin coated plate and detected with a labeled antibody that is specific for mature myostatin.
Briefly, serum samples were acidified at low pH (e.g., pH ~2.5) to dissociate the bound antibody from the immune complex and to convert all myostatin in the sample to the active form of growth factor (i.e., mature myostatin). Samples were then neutralized and assayed for the presence of mature myostatin on ELISA plates coated with anti-mature myostatin antibodies as capture reagents.

human pro-myostatin = human pro-myostatin (Homo sapiens, UniProt O14793); assay: SEC-MALS binding stoichiometry; conditions: for Difference Observed vs. Predicted: < / > = observed below / above predicted
[2] = terminal antibody exposure, liraglutide study (pro myostatin plate ELISA); assay type: in vivo, mouse; conditions: for Exposure (terminal antibody exposure): terminal serum, high fat diet mice; for terminal antibody exposure: liraglutide study, FIG. 11H
Procedure: Pro myostatin was bound to a Costar plate at a concentration of 2 μg/ml then incubated in blocking solution. The antibody of interest was then added and its ability to bind pro myostatin was detected by horseradish peroxidase labeled anti IgG and a tetramethylbenzidine chromogenic substrate. Antibody exposure was measured as binding to the pro myostatin.

[3] = DIO mice on high fat diet treated with liraglutide and antibody (Example 3); assay type: in vivo, mouse; conditions: for body weight: high fat diet mice, liraglutide daily, antibody weekly for four weeks, FIG. 11A-D; for inguinal and perigonadal fat pad fat mass: in combination with liraglutide; for gastrocnemius mass / change in lean mass / fat mass: with liraglutide; for gastrocnemius mass: antibody 20 mg/kg, FIG. 11F; for change in lean mass: FIG. 11E; for fat mass: FIG. 11G
Procedure: Caloric restriction causes loss of both fat and lean mass; inhibiting myostatin maintains lean mass during weight loss. […] Changes in body composition were assessed by qNMR readout for fat mass and lean mass; gastrocnemius weight; and inguinal and perigonadal fat pad weight.
Ten-week-old male mice were fed formula D12492 ad lib, a high-calorie diet comprised of 60% fat, and remained on this diet throughout the study. The antibodies were dosed weekly and liraglutide was dosed daily. Body composition and body weight were measured by qNMR prior to dosing, at 2 weeks, and at the end of the dosing period body weight. Gastrocnemius muscles were removed, and their weights were measured after the animals were terminated.

total myostatin [4] = assay: total serum myostatin, liraglutide study; assay type: in vivo, mouse; conditions: for Myostatin (total serum myostatin): terminal bleed serum, acidified; for total serum myostatin concentrations: liraglutide study, terminal bleed
Procedure: Levels of the antibodies' exposure to myostatin in the serum was measured by assaying for total myostatin in the serum (Lakshman (2009) Cellular Endocrinol 302:26). Terminal bleed serum samples were acidified at low pH (~2.5) to dissociate the antibody from its ligand, thus converting all forms of myostatin to the active growth factor. The samples were then neutralized and assayed for mature growth factor.

[5] = antibody 1 mg/kg/week + liraglutide 0.06 mg/kg q.d.
[6] = antibody 3 mg/kg/week + liraglutide 0.06 mg/kg q.d.
[7] = antibody 10 mg/kg/week + liraglutide 0.06 mg/kg q.d.
[8] = antibody 20 mg/kg/week + liraglutide 0.06 mg/kg q.d.

B1: Ab109: anti-pro/latent myostatin antibody; CDR sequences in Table 2d (antibody)
heavy: EVQLVESGGGLVQPGGSLRLSCAASGFTFSSYGMSWVRQAPGKGLELVASFTGSGGTYYPDSVKGRFTISRDNAKNSLYLQMNSLRAEDTAVYYCARDLLIRFLEWSHYYGMDVWGQGTTVTVSSASTKGPSVFPLAPCSRSTSESTAALGCLVKDYFPEPVTVSWNSGALTSGVHTFPAVLQSSGLYSLSSVVTVPSSSLGTKTYTCNVDHKPSNTKVDKRV[human IgG4 Fc with S228P (EU numbers) left out]
light: DIVMTQSPLSLPVTPGEPASISCRSSQSLLHSSGHNFLHWYLQKPGQSPQLLIYEVSNRVSGVPDRFSGSGSGTDFTLKISRVEAEDVGVYYCMQQTQYPPTFGGGTKVEIKRTVAAPSVFIFPPSDEQLKSGTASVVCLLNNFYPREAKVQWKVDNALQSGNSQESVTEQDSKDSTYSLSSTLTLSKADYEKHKVYACEVTHQGLSSPVTKSFNRGEC
- total circulating myostatin in serum (total myostatin [1]): lower levels of total circulating myostatin as compared to Ab2 treatment
- total circulating (serum) myostatin levels (total myostatin [1]): decrease in serum myostatin
- Myostatin (circulating total myostatin levels) (total myostatin [1]; dose 0.3 mg/kg): 159.6 ng/mL
- Myostatin (circulating total myostatin levels) (total myostatin [1]; dose 1 mg/kg): 45.7 ng/mL
- Myostatin (circulating total myostatin levels) (total myostatin [1]; dose 3 mg/kg): 48.4 ng/mL
- Myostatin (circulating total myostatin levels) (total myostatin [1]; dose 10 mg/kg): BLOQ
- accumulation of myostatin in serum of dosed subjects, compared with apitegromab (total myostatin [1]): little or no accumulation of total myostatin
- Observed Molecular Weight (human pro-myostatin; Fab:pro-myostatin complex): 158.6 kDa
- Predicted Molecular Weight (human pro-myostatin; Fab:pro-myostatin complex of the concluded stoichiometry): 187.53 kDa
- Difference Observed vs. Predicted (human pro-myostatin; Fab:pro-myostatin complex): <28.93 kDa
- Stoichiometry (Fab:pro-myostatin) (human pro-myostatin; concluded stoichiometry, Fab fragment): 2 to 1
- Stoichiometry (mAb:pro-myostatin) (human pro-myostatin; concluded stoichiometry, full-length mAb): 1 to 2
- Observed Molecular Weight (human pro-myostatin; mAb:pro-myostatin complex): 311.4 kDa
- Predicted Molecular Weight (human pro-myostatin; mAb:pro-myostatin complex of the concluded stoichiometry): 317.3 kDa
- Difference Observed vs. Predicted (human pro-myostatin; mAb:pro-myostatin complex): <5.9 kDa
- Exposure (terminal antibody exposure) [2, 5]: 26.9 ng/mL
- Exposure (terminal antibody exposure) [2, 6]: 159.2 ng/mL
- Exposure (terminal antibody exposure) [2, 7]: 709.2 ng/mL
- Exposure (terminal antibody exposure) [2, 8]: 1435.5 ng/mL
- terminal antibody exposure [2]: higher exposure to their pro/latent myostatin ligand than Ab2
- body weight [3]: lost more body weight compared to those treated with Ab2; also recorded: attenuated the increase in body weight compared to the Ig control in the presence of liraglutide; also recorded: lost slightly less weight than those treated with liraglutide and an IgG control
- inguinal and perigonadal fat pad fat mass [3]: reduced the fat mass in the subcutaneous inguinal fat pad and reduced the fat mass in the visceral perigonadal fat pad
- gastrocnemius mass [3]: more effective at increasing gastrocnemius mass than Ab2
- change in lean mass [3]: lean mass increased; also recorded: greater increases in lean mass compared to Ab2
- fat mass [3]: decreased fat mass to a greater extent than Ab2
- Myostatin (total serum myostatin) (total myostatin [4]; [5]): 12.2 ng/mL
- Myostatin (total serum myostatin) (total myostatin [4]; [6]): 4.7 ng/mL
- Myostatin (total serum myostatin) (total myostatin [4]; [7]): 5.6 ng/mL
- Myostatin (total serum myostatin) (total myostatin [4]; [8]): 4.5 ng/mL
- total serum myostatin concentrations (total myostatin [4]): reduced total serum myostatin concentrations compared to Ab2

B2: Ab130: anti-pro/latent myostatin antibody; CDR sequences in Table 2d (antibody)
heavy: EVQLVESGGGLVQPGGSLRLSCAASGFTFTSYGMSWVRQAPGKGLELVASITGSGGETYYPDSVKGRFTISRDNAKNSLYLQMNSLRAEDTAVYYCARDLLVRFLEWSHYYGMDVWGQGTTVTVSSASTKGPSVFPLAPCSRSTSESTAALGCLVKDYFPEPVTVSWNSGALTSGVHTFPAVLQSSGLYSLSSVVTVPSSSLGTKTYTCNVDHKPSNTKVDKRV[human IgG4 Fc with S228P (EU numbers) left out]
light: B1 light with V56T, V60A, S61P, V63I, M94Q, Q96A, Y99F, P101R, T102P
- total circulating myostatin in serum (total myostatin [1]): lower levels of total circulating myostatin as compared to Ab2 treatment
- total circulating (serum) myostatin levels (total myostatin [1]): increase in serum myostatin levels
- Myostatin (circulating total myostatin levels) (total myostatin [1]; dose 0.3 mg/kg): 473.8 ng/mL
- Myostatin (circulating total myostatin levels) (total myostatin [1]; dose 1 mg/kg): 567.3 ng/mL
- Myostatin (circulating total myostatin levels) (total myostatin [1]; dose 3 mg/kg): 585.6 ng/mL
- Myostatin (circulating total myostatin levels) (total myostatin [1]; dose 10 mg/kg): 325.2 ng/mL
- accumulation of myostatin in serum of dosed subjects, compared with apitegromab (total myostatin [1]): reduced accumulation of circulating latent myostatin
- binding stoichiometry mAb:pro-myostatin (human pro-myostatin; full-length mAb): 2:1 complex and a 1:2
- Exposure (terminal antibody exposure) [2, 5]: 21.6 ng/mL
- Exposure (terminal antibody exposure) [2, 6]: 96.7 ng/mL
- Exposure (terminal antibody exposure) [2, 7]: 599.0 ng/mL
- Exposure (terminal antibody exposure) [2, 8]: 1418.2 ng/mL
- terminal antibody exposure [2]: higher exposure to their pro/latent myostatin ligand than Ab2
- body weight [3]: lost more body weight compared to those treated with Ab2; also recorded: attenuated the increase in body weight compared to liraglutide alone; also recorded: lost slightly less weight than those treated with liraglutide and an IgG control
- inguinal and perigonadal fat pad fat mass [3]: reduced the fat mass in the subcutaneous inguinal fat pad and reduced the fat mass in the visceral perigonadal fat pad
- gastrocnemius mass [3]: more effective at increasing gastrocnemius mass than Ab2
- change in lean mass [3]: lean mass increased; also recorded: greater increases in lean mass compared to Ab2
- fat mass [3]: decreased fat mass to a greater extent than Ab2
- Myostatin (total serum myostatin) (total myostatin [4]; [5]): 52.9 ng/mL
- Myostatin (total serum myostatin) (total myostatin [4]; [6]): 41.5 ng/mL
- Myostatin (total serum myostatin) (total myostatin [4]; [7]): 41.0 ng/mL
- Myostatin (total serum myostatin) (total myostatin [4]; [8]): 42.4 ng/mL
- total serum myostatin concentrations (total myostatin [4]): reduced total serum myostatin concentrations compared to Ab2
